Experimental data published in ChEMBL document CHEMBL1157539, “Thousands of chemical starting points for antimalarial lead identification” (Nature, 2010).
Several values for one entry are separate records, joined by “and”; a condition that tells them apart may be missing. Equal values may be shown once. The full ranking holds about 13,000 compounds; the median of “IFI” is about 4, and the highest 2% start at about 17. This is one part of the list.

test: GSK_TCMDC: Inhibition Frequency Index (IFI). The number of non-kinase HTS assays where a compound showed > 50 % inhibition, expressed as a percentage of the number of such assays in which the compound was tested (-0 is zero); assay type: functional

Going from `O=C(/C=C/c1ccc(Cl)c(Cl)c1)NC1CCC(CN2CCC(c3c[nH]c4cc(O)ccc34)CC2)CC1` (stereo not given) to `O=C(C=Cc1ccc(Br)cc1)NC1CCC(CN2CCC(c3c[nH]c4ccccc34)CC2)CC1` (stereo not given), the IFI falls from 6.72% to 6.38%.

First: Oc1cccc(C2CCCN(Cc3cccc4cc[nH]c34)C2)c1 (stereo not given)
Second: Fc1ccc2[nH]cc(CCN3CCC(CNCc4ccccc4)CC3)c2c1
The IFI of the first is higher: 11.8% for the first, 9.86% for the second.

Compared with `O=C1Nc2cccc3c2C1(CCCCN1CC=C(c2c[nH]c4ncccc24)CC1)CCC3` (stereo not given), `Cc1[nH]c2ccccc2c1C1=CCN(CCN2CCCc3c(Br)cccc3C2=O)CC1` is lower in IFI: 4.41% for the first, 2.96% for the second.

Compared with `CC[C@H]1CN2CC[C@H]1C[C@H]2[C@H](O)c1cc(-c2ccc3ccccc3c2)nc2ccc(OC)cc12`, `CC[C@H]1CN2CC[C@H]1C[C@H]2[C@H](O)c1cc(-c2ccc(SC)cc2)nc2ccc(OC)cc12` is lower in IFI: 10.5% for the first, 6.9% for the second.

First: CNCCN(C)C(=O)Oc1c(Cl)c(C)nc(C)c1-c1ccc(Oc2ccc(OC(F)(F)F)cc2)cc1
Second: CC(Cc1ccc(Oc2ccc(Cl)cc2)cc1)NCC(O)c1cccc(Cl)c1 (stereo not given)
The IFI of the first is lower: 2.34% for the first, 7.3% for the second.

Going from `COc1c(F)cc(CC(C)NCC(O)c2cccc(Cl)c2)cc1F` (stereo not given) to `CC(Cc1ccc(SCCSc2ccccc2)cc1)NCC(O)c1cccc(Cl)c1` (stereo not given), the IFI rises from 1.37% to 9.35%.

Compared with `CN1CC=C(c2c[nH]c3ccc(OCc4ccccc4)cc23)CC1`, `CN1C(=O)OC[C@@H]1Cc1ccc2[nH]cc(C3=CCN(Cc4ccccc4)CC3)c2c1` is lower in IFI: 1.64% for the first, -0% for the second.

Going from `C/C=C1/CN2CC[C@H]1C[C@H]2[C@H](O)c1ccnc2ccc(OC)cc12` to `COc1ccc2nc(-c3ccc(F)cc3)cc([C@@H](O)[C@@H]3C[C@@H]4CCN3CC4C=NO)c2c1` (stereo not given in full), the IFI rises from -0% to 1.46%.

First: CN(C(=O)OCc1ccccc1)C1CCC(CCN2CCC3(CC2)C(=O)NCN3c2cccc(C(F)(F)F)c2)(c2ccccc2)CC1 (stereo not given)
Second: CC(=O)N(Cc1ccccc1-c1ccc(CNCCc2ccccc2)cc1)C1CCN(Cc2ccccc2)CC1
The IFI of the first is higher: 8.63% for the first, 6.02% for the second.

First: C=C[C@H]1CN2CC[C@H]1C[C@H]2[C@H](O)c1cc(-c2ccc(Cl)cc2)nc2ccc(OC)cc12
Second: CC[C@H]1CN2CC[C@@H]1C[C@H]2[C@H](O)c1cc(-c2c(C)noc2C)nc2ccc(OC)cc12
The IFI of the first is higher: 14.9% for the first, 0.74% for the second.

Compared with `CC(=O)Nc1ccc(CN2CCC(N(C)c3cc(NC(=O)c4cccs4)ccn3)CC2)cc1`, `CC(=O)Nc1ccc(CN2CCC(N(C)c3cc(NC(=O)c4cccc(F)c4)ccn3)CC2)cc1` is lower in IFI: 2.94% for the first, -0% for the second.

First: Oc1ccccc1CN1CCC(CCOC(c2ccccc2)c2ccc(Cl)cc2)CC1 (stereo not given)
Second: O=C(Nc1ccc(CN2CCC(c3c[nH]c4ccc(O)cc34)CC2)cc1)c1ccc(-c2ccccc2)cc1
The IFI of the first is lower: 2.34% for the first, 7.69% for the second.

First: CC[C@H]1CN2CC[C@H]1C[C@H]2[C@H](O)c1cc(N2CCCC(CO)C2)nc2ccc(OC)cc12 (stereo not given in full)
Second: CC[C@H]1CN2CC[C@@H]1C[C@H]2[C@H](O)c1cc(N2CCSCC2)nc2ccc(OC)cc12
The IFI of the first is lower: -0% for the first, 3.77% for the second.

Compared with `CN1CC=C(c2c[nH]c3ccc(Br)cc23)CC1`, `COc1ccc(C(=O)C2CC2CN2CC=C(c3c[nH]c4ccccc34)CC2)cc1` (stereo not given) is higher in IFI: -0% for the first, 4.42% for the second.

Going from `CCN(Cc1ccccc1)CC(O)c1ccc(Cl)c(Cl)c1` (stereo not given) to `CCOC(=O)CCCN1C(=O)CN=C(c2ccccc2)c2cc(Cl)ccc21`, the IFI falls from 0.74% to -0%.

First: O=C(/C=C/c1ccc(Cl)c(Cl)c1)N1CCC(CN2CCC(c3cn(CC(=O)N4CCCCC4)c4ccccc34)CC2)CC1
Second: Cc1cc(O)cc2c(C3CCN(CC4CCN(C(=O)/C=C/c5ccc(Cl)c(Cl)c5)CC4)CC3)c[nH]c12
The IFI of the first is higher: 10% for the first, 4.93% for the second.

Compared with `NC1=NC2(CCCC2)N(c2ccc(Cl)cc2)C(N)=N1`, `Cc1cc(N(C)C2CCN(C)CC2)nc(Nc2ccc(Cl)cc2)n1` is higher in IFI: 0.67% for the first, 2.41% for the second.

First: CC(Cc1ccc(-c2nc3ccccc3[nH]2)cc1)NCC(O)c1cccc(C(F)(F)F)c1 (stereo not given)
Second: COC(=O)c1ccc(CC(C)NCC(O)c2ccc3ccc4ccccc4c3c2)cc1 (stereo not given)
The IFI of the first is lower: 7.19% for the first, 13.4% for the second.

Compared with `S=C(NCC1CCCCC1)NC1CCC(CN2CCC(c3c[nH]c4ccccc34)CC2)CC1` (stereo not given), `O=C(NC1CCC(CN2CCC(c3c[nH]c4ccccc34)CC2)CC1)NC12CC3CC(CC(C3)C1)C2` (stereo not given) is lower in IFI: 5.07% for the first, 4.9% for the second.

First: O=C(c1cc(C(=O)NCc2ccc(Cl)cc2)c(=O)n(Cc2ccc(Cl)cc2)c1)c1cc(F)ccc1O
Second: Cc1[nH]c2ccccc2c1C1=CCN(CCCCCNC(=O)/C=C/c2ccc(Cl)c(Cl)c2)CC1
The IFI of the first is lower: 3.03% for the first, 5.34% for the second.

Compared with `CCCCn1c(C)c(C(=O)OCC)c2cc(OC(C)=O)c(Br)cc21`, `CC[C@H]1CN2CCc3cc(OC)c(OC)cc3[C@@H]2C[C@@H]1C[C@H]1NCCc2c1cc(OC)c(O)c2Cl` is higher in IFI: 2.1% for the first, 9.52% for the second.

First: O=C(NC1CCC(CN2CCC(c3c[nH]c4ccccc34)CC2)CC1)c1csc(-c2ccc(C(F)(F)F)cc2Cl)n1 (stereo not given)
Second: Cc1c(C(=O)NC2CCC(CN3CCC(c4c[nH]c5ccccc45)CC3)CC2)cnn1-c1c(Cl)cc(Cl)cc1Cl (stereo not given)
The IFI of the first is lower: 7.8% for the first, 10% for the second.

Going from `CC(=O)C1(c2ccccc2)CCN(CCC2(c3ccc(Cl)c(Cl)c3)CN(C(=O)CC(C)C)CCO2)CC1` (stereo not given) to `Cc1[nH]c2ccc(NS(C)(=O)=O)cc2c1C1CCN(CC2CCN(C(=O)/C=C/c3ccc(Cl)c(Cl)c3)CC2)CC1`, the IFI falls from 4.03% to 2.17%.

First: Cc1[nH]c2ccccc2c1C1=CCN(CC2CC2C(=O)c2ccccc2)CC1 (stereo not given)
Second: CN1CCC(COC(=O)C(O)(c2ccccc2)c2ccccc2)C1 (stereo not given)
The IFI of the first is higher: 4.27% for the first, 2.19% for the second.

Compared with `Cc1nc(-c2ccc(-c3ccc(C(=O)Nc4ccc5c(c4)C4(CCNCC4)CO5)cc3)c(C)c2)no1`, `COc1ccc2[nH]cc(C3CC4CCC(C3)N4CCC3CCN(C(=O)/C=C/c4ccc(Cl)c(Cl)c4)CC3)c2c1` (stereo not given) is higher in IFI: 5.26% for the first, 13.6% for the second.

Compared with `CN1C(=O)[C@H](NC(=O)[C@@H](Cc2ccccc2)NC(=S)Nc2ccccc2)N=C(c2ccccc2)c2ccccc21`, `CC[C@H]1CN2CC[C@H]1C[C@H]2C(O)c1cc(OC)nc2ccccc12` (stereo not given in full) is higher in IFI: -0% for the first, 0.71% for the second.

Compared with `N=c1c2c(n(Cc3ccc(Cl)cc3Cl)c3c1CCC3)CCCC2`, `O=c1n[n+](C2CCCCC2)[n-]o1` is lower in IFI: 2.76% for the first, -0% for the second.

In the case of `Cc1ccc(/C=C/C(=O)NC2CCC(CN3CCC(c4c[nH]c5ccccc45)CC3)CC2)cc1` (stereo not given), the IFI is reported as 7.04% and 5.52%.
